Here are results for 15 molecules from PubChem BioAssay AID2202238 (Ras Initiative Chemistry Research Team, Frederick National …, 2025).

The target of this experiment is GTPase KRas (Homo sapiens) (UniProt P01116). Put plainly: Covalent labelling of cysteine mutants by fragments, read by mass spectrometry (AID 2202238). Set-up: protein at 5 µM with 500 µM competing thiol for 1.5 h. The note with it: KRAS G12D cysteine mutants, disulfide tethering, MALDI-TOF labeling, stronger effect = higher value, fragment at 500 µM.
Where [1] appears, read: measured here: G75C mutant labeling.
Setting [2] is: measured here: H94C mutant labeling.
Setting [3] is: measured here: I36C mutant labeling.
The mark [4] stands for this setting: measured here: L120C mutant labeling.
Setting [5] is: measured here: M67C mutant labeling.
Where [6] appears, read: measured here: M72C mutant labeling.
Setting [7] is: measured here: N86C mutant labeling.
Setting [8] is: measured here: P121C mutant labeling.
[9] abbreviates: measured here: S122C mutant labeling.
[10] abbreviates: measured here: S136C mutant labeling.
Where [11] appears, read: measured here: G60C mutant labeling.
Setting [12] is: measured here: N26C mutant labeling.

This is one part of the list. Shown are side measurements of this screen, not its main read-out; they come without a call.

Chain of UniProt P01116 (P01116 whole entry, looked up, the tested form may be a part): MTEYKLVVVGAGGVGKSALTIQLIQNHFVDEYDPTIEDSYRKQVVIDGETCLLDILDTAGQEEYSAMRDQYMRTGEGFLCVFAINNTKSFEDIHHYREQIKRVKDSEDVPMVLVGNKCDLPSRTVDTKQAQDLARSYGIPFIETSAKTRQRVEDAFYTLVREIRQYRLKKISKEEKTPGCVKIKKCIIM

On to `O=C(CCS)NCCCC(=O)Nc1cn[nH]c1`, for which the percent labeling came to 12.6% under setting [1]; 28.8% under setting [2]; 45% under setting [3]; 35.5% under setting [4]; 32.3% under setting [5]; 15.5% under setting [6]. In addition, the percent labeling is, setting by setting: under setting [7], 30.4%; under setting [8], 32.2%; under setting [9], 37.9%; under setting [10], 51.1%.
Regarding `CC(C)(C(=O)NCCS)c1ccc(C(F)(F)F)cc1`, the percent labeling under setting [11] was 29.6%; the percent labeling under setting [1] came out at 11.9%; the percent labeling under setting [2] came to 23.8%; the percent labeling under setting [3] was 8.9%; the percent labeling under setting [4] was found to be 22.7%; the percent labeling under setting [5] came out at 14.2%. The same molecule displayed a percent labeling under setting [6] of 16.3%; a percent labeling under setting [12] of 25.4%; a percent labeling under setting [7] of 11.9%; a percent labeling under setting [8] of 17.7%; a percent labeling under setting [9] of 15.5%; a percent labeling under setting [10] of 20.3%.
Consider `O=C(CCS)Nc1ccc(F)cc1Cn1ccsc1=O`, for which the percent labeling was 19.3% under setting [1]; 47.9% under setting [2]; 41.4% under setting [3]; 36.7% under setting [4]; 36.2% under setting [5]; 39.5% under setting [6]. The percent labeling reads like this: under setting [7], 30.7%; under setting [8], 33.9%; under setting [9], 30%; under setting [10], 57.4%.
Regarding `Cc1nn(-c2ccccc2)c(C)c1C(=O)NCCS`, the percent labeling by setting is: under setting [11], 36.5%; under setting [1], 13.1%; under setting [2], 27%; under setting [3], 23%; under setting [4], 24.6%; under setting [5], 28%. For the same molecule, the percent labeling under setting [6] amounted to 33.4%; the percent labeling under setting [12] is 42.7%; the percent labeling under setting [7] was determined as 22.9%; the percent labeling under setting [8] was 56.1%; the percent labeling under setting [9] came to 24.2%; the percent labeling under setting [10] was determined as 37.6%.
For `O=C(Nc1sccc1C(=O)NCCS)c1ccc2c(c1)CCC2`, the percent labeling is, setting by setting: under setting [11], 29.9%; under setting [1], 11.5%; under setting [2], 15.1%; under setting [3], 16.7%; under setting [4], 11.9%; under setting [5], 7.1%. In addition, the percent labeling under setting [6] came to 41.4%; the percent labeling under setting [12] was 16.4%; the percent labeling under setting [7] came out at 3.4%; the percent labeling under setting [8] is 9%; the percent labeling under setting [9] turned out to be 2.5%; the percent labeling under setting [10] stood at 12.7%.
As to `O=C(CCS)NC1(c2ccc(Br)cc2)COC1`, the percent labeling amounted to 18% under setting [1]; 16.1% under setting [2]; 33.5% under setting [3]; 37.5% under setting [4]; 6.8% under setting [5]; 43.9% under setting [6]. For the same molecule, the percent labeling is, setting by setting: under setting [7], 27.2%; under setting [8], 35.2%; under setting [9], 31.6%; under setting [10], 55.4%.
On to `COc1cccc(-c2cc(CN(C)C(=O)CCS)[nH]n2)c1`, for which the percent labeling reads like this: under setting [1], 18.8%; under setting [2], 28.5%; under setting [3], 30.5%; under setting [4], 27.1%; under setting [5], 35.6%; under setting [6], 46.2%. The percent labeling runs as follows: under setting [7], 19.9%; under setting [8], 38.2%; under setting [9], 17.4%; under setting [10], 36.6%.
Consider `O=C(NCCS)c1ccc2c(c1)[nH]c(=O)n2CC(F)(F)F`, for which the percent labeling reads like this: under setting [11], 40.1%; under setting [1], 26.3%; under setting [2], 35.4%; under setting [3], 30.8%; under setting [4], 34.4%; under setting [5], 26.9%. In addition, the percent labeling reads like this: under setting [6], 61.7%; under setting [12], 50.3%; under setting [7], 21.2%; under setting [8], 26.8%; under setting [9], 16.4%; under setting [10], 42.9%.
As for `Cc1nc(-c2cccnc2)[nH]c(=O)c1CC(=O)NCCS`, the percent labeling amounted to 36.2% under setting [11]; 19.3% under setting [1]; 30.9% under setting [2]; 26.1% under setting [3]; 46.6% under setting [4]; 28.4% under setting [5]. Further, the percent labeling is, setting by setting: under setting [6], 19.7%; under setting [12], 38%; under setting [7], 28.2%; under setting [8], 32.2%; under setting [9], 38.5%; under setting [10], 37.4%.
For the molecule `O=C(CCS)Nc1ccc2c(c1)C(=O)NCC2`, the percent labeling is, setting by setting: under setting [1], 17.3%; under setting [2], 32.8%; under setting [3], 43.5%; under setting [4], 31.1%; under setting [5], 28.8%; under setting [6], 42.2%. Further, the percent labeling is, setting by setting: under setting [7], 39.2%; under setting [8], 27.7%; under setting [9], 33.8%; under setting [10], 54.7%.
Take `Cc1nc2cc(=O)[nH]n2c(C)c1CNC(=O)CCS`: the percent labeling was 4.1% under setting [1]; 23% under setting [2]; 24% under setting [3]; 28.2% under setting [4]; 28.4% under setting [5]; 9.1% under setting [6]. This molecule displayed a percent labeling under setting [7] of 9.6%, a percent labeling under setting [8] of 33.5%, a percent labeling under setting [9] of 36% and a percent labeling under setting [10] of 36.7%.
On to `O=C(CCS)NC1CCC(O)(C(F)(F)F)CC1` (centres undefined), for which the percent labeling is 9.9% under setting [1]; 30.7% under setting [2]; 33.9% under setting [3]; 31.7% under setting [4]; 36.4% under setting [5]; 21.7% under setting [6]. The percent labeling reads like this: under setting [7], 26.5%; under setting [8], 40.3%; under setting [9], 41.1%; under setting [10], 49.1%.
Regarding `O=C(CC1(C(=O)NCCS)CCCC1)N1CCOCC1`, the percent labeling is 24.1% under setting [11]; 7.6% under setting [1]; 26.6% under setting [2]; 17.5% under setting [3]; 34.4% under setting [4]; 23.6% under setting [5]. Moreover, the percent labeling runs as follows: under setting [6], 10.3%; under setting [12], 32.3%; under setting [7], 24.6%; under setting [8], 24.6%; under setting [9], 26.4%; under setting [10], 31.2%.
On to `O=C(NCCS)c1csc(-c2cnccn2)n1`, for which the percent labeling came to 39.1% under setting [11]; 24.9% under setting [1]; 34.1% under setting [2]; 23.4% under setting [3]; 35.8% under setting [4]; 26.1% under setting [5]. Moreover, the percent labeling by setting is: under setting [6], 53%; under setting [12], 47.2%; under setting [7], 21.7%; under setting [8], 25.4%; under setting [9], 23.4%; under setting [10], 44.7%.
In the case of `O=C(CCS)Nc1ccccc1Oc1ncc(Cl)cc1Cl`, the percent labeling was 7.7% under setting [1]; 18% under setting [2]; 20.3% under setting [3]; 12.5% under setting [4]; 19.4% under setting [5]; 27.9% under setting [6]. Moreover, the percent labeling turned out to be 11.7% under setting [7], 14.5% under setting [8], 7.1% under setting [9] and 21.5% under setting [10].
